# Reference: a collection of fitness landscapes (doi:10.1126/science.1257360)
# This is one part of the list.
# B1: PhoQ; a variant is named by its letters at X, in order, P23837 (parent)
# chain: MKKLLRLFFPLSLRVRFLLATAAVVLVLSLAYGMVALIGYSVSFDKTTFRLLRGESNLFYTLAKWENNKLHVELPENIDKQSPTMTLIYDENGQLLWAQRDVPWLMKMIQPDWLKSNGFHEIEADVNDTSLLLSGDHSIQQQLQEVREDDDDAEMTHSVAVNVYPATSRMPKLTIVVVDTIPVELKSSYMVWSWFIYVLSANLLLVIPLLWVAAWWSLRPIEALAKEVRELEEHNRELLNPATTRELTSLVRNLNRLLKSERERYDKYRTTLTDLTHSLKTPLXXLQXXLRSLRSEKMSVSDAEPVMLEQISRISQQIGYYLHRASMRGGTLLSRELHPVAPLLDNLTSALNKVYQRKGVNISLDISPEISFVGEQNDFVEVMGNVLDNACKYCLEFVEISARQTDEHLYIVVEDDGPGIPLSKREVIFDRGQRVDTLRPGQGVGLAVAREITEQYEGKIVAGESMLGGARMEVIFGRQHSAPKDE
# Variants of: B1
# Assay: enrichment ratio after two sorts for PhoP signalling (ratio (wild type AVST 3.29)); higher = more functional
# Conditions: with PhoP (E. coli)
row,Variant,enrichment ratio
1,GMMY,≤ 0.25
2,DWVD,≤ 0.25
3,YDPQ,≤ 0.25
4,AHII,≤ 0.25
5,IATR,≤ 0.25
6,AWKH,≤ 0.25
7,AKDP,≤ 0.25
8,ENSI,≤ 0.25
9,HPLQ,≤ 0.25
10,MYTW,≤ 0.25
11,TQFT,2.65
12,STSY,11.6
13,RGCC,≤ 0.25
14,SYAA,≤ 0.25
15,GPLE,≤ 0.25
16,QHYT,≤ 0.25
17,MTLL,10.3
18,IILR,≤ 0.25
19,NYFV,≤ 0.25
20,TQMQ,24.2
21,PPQF,≤ 0.25
22,MYEA,≤ 0.25
23,MDKV,≤ 0.25
24,QDIH,≤ 0.25
25,EVRP,≤ 0.25

row,Variant,enrichment ratio
1,PFKS,≤ 0.25
2,VHSH,≤ 0.25
3,ISED,≤ 0.25
4,PEEM,≤ 0.25
5,QQVV,≤ 0.25
6,FFIY,≤ 0.25
7,AQKA,≤ 0.25
8,THDM,≤ 0.25
9,FQLT,0.814
10,ETAI,≤ 0.25
11,PMPA,≤ 0.25
12,AGPD,≤ 0.25
13,RPWR,≤ 0.25
14,DQNS,≤ 0.25
15,HYVW,≤ 0.25
16,PALL,≤ 0.25
17,FVPP,≤ 0.25
18,TMGC,11.3
19,MERF,≤ 0.25
20,GLKP,≤ 0.25
21,QRQP,≤ 0.25
22,DMQA,≤ 0.25
23,TRKT,≤ 0.25
24,AMMD,≤ 0.25
25,NAKF,≤ 0.25

row,Variant,enrichment ratio
1,RDQV,≤ 0.25
2,VPYY,≤ 0.25
3,HFWP,≤ 0.25
4,ADNY,≤ 0.25
5,PKSC,≤ 0.25
6,DNFD,≤ 0.25
7,KMAV,≤ 0.25
8,SKLN,6.24
9,NMAL,≤ 0.25
10,NSRQ,≤ 0.25
11,HWID,≤ 0.25
12,FWTP,≤ 0.25
13,IKFS,≤ 0.25
14,EYWP,≤ 0.25
15,MLKQ,≤ 0.25
16,NGNH,≤ 0.25
17,QFTL,≤ 0.25
18,FGVP,≤ 0.25
19,PLHL,≤ 0.25
20,HNLK,≤ 0.25
21,RPAM,≤ 0.25
22,GRAR,≤ 0.25
23,DRYA,≤ 0.25
24,TDNE,≤ 0.25
25,GKGP,≤ 0.25

row,Variant,enrichment ratio
1,PKTW,≤ 0.25
2,ECVW,≤ 0.25
3,KQAH,0.881
4,SHFV,≤ 0.25
5,ATLN,17.9
6,WAWP,≤ 0.25
7,YTTQ,≤ 0.25
8,RHPG,≤ 0.25
9,QQKS,≤ 0.25
10,HAGW,≤ 0.25
11,RSFQ,≤ 0.25
12,AKFA,≤ 0.25
13,QAIM,≤ 0.25
14,GDET,≤ 0.25
15,EADM,≤ 0.25
16,WLCL,≤ 0.25
17,RLCR,≤ 0.25
18,NIRR,≤ 0.25
19,VPRT,≤ 0.25
20,WYYS,≤ 0.25
21,IEWP,≤ 0.25
22,WYAA,≤ 0.25
23,RIPQ,≤ 0.25
24,GPRD,≤ 0.25
25,HQFD,≤ 0.25

row,Variant,enrichment ratio
1,EHGA,≤ 0.25
2,LVKS,≤ 0.25
3,YMAH,≤ 0.25
4,DFVN,≤ 0.25
5,LKHW,≤ 0.25
6,PNDA,≤ 0.25
7,NLCH,≤ 0.25
8,TFSW,≤ 0.25
9,DTSG,≤ 0.25
10,DLLM,≤ 0.25
11,FRWP,≤ 0.25
12,AQCS,11.1
13,DWVA,≤ 0.25
14,QMLT,≤ 0.25
15,FMET,≤ 0.25
16,GSPG,≤ 0.25
17,RSME,≤ 0.25
18,NDTM,≤ 0.25
19,MMTS,≤ 0.25
20,VENG,≤ 0.25
21,CFFI,≤ 0.25
22,SNMT,8.85
23,FWFG,≤ 0.25
24,KASP,≤ 0.25
25,AQKP,≤ 0.25

row,Variant,enrichment ratio
1,SWDE,≤ 0.25
2,ELTE,≤ 0.25
3,QDRD,≤ 0.25
4,HWSL,≤ 0.25
5,YLYM,≤ 0.25
6,NFSQ,≤ 0.25
7,QLAV,≤ 0.25
8,AIYP,12.7
9,KKYP,≤ 0.25
10,IKKN,≤ 0.25
11,RFMF,≤ 0.25
12,INVK,≤ 0.25
13,FNVA,≤ 0.25
14,SFFH,≤ 0.25
15,HQSR,≤ 0.25
16,TSLQ,16.4
17,MKYT,≤ 0.25
18,MVSH,≤ 0.25
19,HVYR,≤ 0.25
20,TYIC,≤ 0.25
21,TGDD,≤ 0.25
22,AITN,22.4
23,NCFI,≤ 0.25
24,NIVS,≤ 0.25
25,FYTA,≤ 0.25

row,Variant,enrichment ratio
1,WTDD,≤ 0.25
2,HISP,≤ 0.25
3,STFD,≤ 0.25
4,RCFM,≤ 0.25
5,DDLK,≤ 0.25
6,GFMQ,≤ 0.25
7,NQQA,≤ 0.25
8,NETH,≤ 0.25
9,YVSW,≤ 0.25
10,RCTF,≤ 0.25
11,YIPC,≤ 0.25
12,VFCS,≤ 0.25
13,IRRV,≤ 0.25
14,GRRP,≤ 0.25
15,MHWL,≤ 0.25
16,ERNP,≤ 0.25
17,WKSR,≤ 0.25
18,LPRC,≤ 0.25
19,QVKR,≤ 0.25
20,ACMM,14.1
21,QNIA,≤ 0.25
22,IWTP,≤ 0.25
23,GGVI,1.85
24,DIHI,≤ 0.25
25,WEAD,≤ 0.25

row,Variant,enrichment ratio
1,AYCK,≤ 0.25
2,LLYD,≤ 0.25
3,VNEV,≤ 0.25
4,MINC,≤ 0.25
5,HKWN,≤ 0.25
6,PDLS,≤ 0.25
7,HDPQ,≤ 0.25
8,GLFC,≤ 0.25
9,TMGP,≤ 0.25
10,HLQN,≤ 0.25
11,KLIS,≤ 0.25
12,GQER,≤ 0.25
13,QVNL,≤ 0.25
14,PPNM,≤ 0.25
15,WLVG,≤ 0.25
16,WMAV,≤ 0.25
17,TLTD,≤ 0.25
18,TYAH,0.357
19,ISSH,≤ 0.25
20,LQVK,≤ 0.25
